Screen size: about 16,000 compounds; about 120 (0.75%) were called active. Not shown: some 4% with an inconclusive outcome. Calls come from the whole dose curve; as a rule, active = well fitted inhibition curve with a large enough effect; inconclusive = small, poorly fitted or top-dose-only effect; inactive = no such curve, though single readings can be large or run the other way. The list shows a part of the results.

UniProt O95398, sequence (O95398 whole entry, looked up): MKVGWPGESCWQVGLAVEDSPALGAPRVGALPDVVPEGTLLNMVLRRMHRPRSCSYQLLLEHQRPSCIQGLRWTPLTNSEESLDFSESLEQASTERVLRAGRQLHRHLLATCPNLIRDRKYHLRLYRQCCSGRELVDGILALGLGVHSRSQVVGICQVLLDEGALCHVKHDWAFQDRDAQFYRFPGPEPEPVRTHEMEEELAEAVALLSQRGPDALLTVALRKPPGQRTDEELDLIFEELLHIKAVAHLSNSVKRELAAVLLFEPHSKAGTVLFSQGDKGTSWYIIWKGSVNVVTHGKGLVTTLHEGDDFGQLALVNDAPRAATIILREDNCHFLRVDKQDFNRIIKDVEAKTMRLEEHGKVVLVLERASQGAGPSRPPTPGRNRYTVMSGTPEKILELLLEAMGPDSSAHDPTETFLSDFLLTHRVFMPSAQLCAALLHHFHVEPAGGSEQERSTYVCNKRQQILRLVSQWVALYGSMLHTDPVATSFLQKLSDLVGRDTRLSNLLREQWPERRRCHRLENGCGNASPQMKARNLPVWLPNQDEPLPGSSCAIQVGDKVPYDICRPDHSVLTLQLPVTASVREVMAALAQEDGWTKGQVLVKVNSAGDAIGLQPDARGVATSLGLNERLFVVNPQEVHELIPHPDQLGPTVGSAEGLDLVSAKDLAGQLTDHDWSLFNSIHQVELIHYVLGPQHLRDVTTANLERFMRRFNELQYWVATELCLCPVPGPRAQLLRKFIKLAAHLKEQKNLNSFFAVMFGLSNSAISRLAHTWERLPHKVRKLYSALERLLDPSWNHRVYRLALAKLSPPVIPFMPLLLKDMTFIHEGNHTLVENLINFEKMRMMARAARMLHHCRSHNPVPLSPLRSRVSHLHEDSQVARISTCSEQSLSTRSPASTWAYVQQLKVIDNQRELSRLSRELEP

The assay deals with Rap guanine nucleotide exchange factor 3 (Homo sapiens) (UniProt O95398). Briefly: Validation qHTS for antagonist of cAMP-regulated guanine nucleotide exchange factor 3 (EPAC1).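 Note: plate controls were DMSO for no effect and ATA control for full effect; nearly all actives have a fitted effect of over 75% in size.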 To be noted: EPAC1 Rap1B-BODIPY-GDP exchange, fluorescence; series mostly up to 150 µM; activity change, negative = inhibition: at the top concentration. The gist of the method:
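EPAC1 (100 nM) mixed with 250 nM RAP1B-BODIPY-GDP and 50 uM GDP; compounds in concentration series, 5 min at room temperature. Fluorescence (ex 480/em 540 nm) read every 5 min for 30 min; normalized to ATA control and DMSO.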
(In general: qHTS replaces the single test concentration by a dilution series.)
Take `Cc1ncc2c(c1CNC(=O)c1cncs1)CCN(C(=O)c1csc(-c3cccs3)n1)C2`: the “activity change, negative = inhibition” value was inactive: 24.5%.

`Cc1ccc(C)c(CN2CCC3(CCC(CNC(=O)c4ccnn4C)O3)CC2)c1` (stereo not drawn): the “activity change, negative = inhibition” value is inactive: 12.1%.

On to `COCCCOc1ccnc(CS(=O)c2nc3ccccc3[nH]2)c1C` (stereo not drawn), for which the “activity change, negative = inhibition” value was inactive: 25.6%.

In the case of `CCOC(=O)N1CCN(Cc2ccc3c(c2)CN(C(=O)c2ccc(C#CC(C)(C)O)o2)CCO3)CC1`, the “activity change, negative = inhibition” value is inactive: 11.1%.

With `CC(=O)N=c1sc(S(N)(=O)=O)nn1C`, the activity change, negative = inhibition result is “inactive”.

For `O=c1cnc2cnc(Oc3ccccc3)nc2n1C[C@H]1CCCO1`, the “activity change, negative = inhibition” value was inactive: 13%.

Turning to `Cc1ncc2c(c1CNC(=O)CN1CCCCC1)CCN(C(=O)c1ccc(F)cc1Cl)C2`, the “activity change, negative = inhibition” value was inactive: 8.68%.

Turning to `O=C(C1CCCCC1)N1CCOc2ccc(CN3CCN(Cc4ccccn4)CC3)cc2C1`, the “activity change, negative = inhibition” value was inactive: 4.14%.

As to `CC(C)NNC(=O)c1ccncc1`, the activity change, negative = inhibition result is “inactive”.

Consider `Cc1[nH]c2c(C(=O)NCC3Cc4cccc(-c5cccnc5)c4O3)cccc2c1C` (stereo not drawn), for which the “activity change, negative = inhibition” value was inactive: 8.57%.

Take `COc1ccccc1CNC(=O)c1cnn(-c2nccc(-c3cccs3)n2)c1C`: the “activity change, negative = inhibition” value is inactive: -11.1%.

For `COc1cccc(Nc2ncc3ncc(=O)n(Cc4cccs4)c3n2)c1`, the “activity change, negative = inhibition” value was inactive: -19.5%.

For the molecule `COc1ccccc1-c1cc(NCc2cccs2)ncn1`, the “activity change, negative = inhibition” value was inactive: 6.11%.

As for `O=C(O)c1cc(=O)c2ccccc2[nH]1`, the activity change, negative = inhibition entry was “inactive”.

Turning to `Cc1ccccc1-c1ccc2ncnc(N3CCNCC3)c2c1`, the “activity change, negative = inhibition” value is inactive: 22.4%.

Turning to `O=C(NCCNC[C@@H](O)COc1ccc(O)cc1)N1CCOCC1`, the “activity change, negative = inhibition” value is inactive: 3.33%.

Consider `O=C1c2ccccc2C(=O)c2cc(Cn3cc(-c4cccc(C(F)(F)F)c4)nn3)ccc21`, for which the “activity change, negative = inhibition” value is inactive: -13.3%.

For the molecule `CC(=O)O[C@@H]1CC2C(C)(C)C(=O)C=C[C@]2(C)C2CC[C@]3(C)C(=CC[C@H]3C3CO[C@@H](C(C)(C)O)[C@H](O)C3)[C@@]21C` (stereo partly drawn), the “activity change, negative = inhibition” value is inactive: 17.5%.

Regarding `COCC(=O)Nc1cc(C(=O)N2CCc3ccccc3C2)c2c(c1)nc(-c1ccncc1)n2C`, the “activity change, negative = inhibition” value is inactive: 14.4%.

For `N[C@H](C(=O)O)c1ccc(C(=O)O)c(O)c1`, the activity change, negative = inhibition entry was “inactive”.

`C[C@H](NCCc1ccc(O)cc1)[C@H](O)c1ccc(O)cc1`: the “activity change, negative = inhibition” value is inactive: 4.22%.

`CCCCN1CCC[C@@H]1CNC(=O)c1cc(C#N)c2ccccc2c1OC`: the “activity change, negative = inhibition” value is inactive: -15.6%.

For `COCc1c(C(=O)NC2CCCC2)cnn1-c1nccc(-c2cccs2)n1`, the “activity change, negative = inhibition” value is inactive: 8.17%.

In the case of `CC(C)NC(=O)N1CCC2(CC1)CCN(C(=O)c1csnn1)CC2`, the “activity change, negative = inhibition” value was inactive: 16.6%.

On to `COc1ccc(C[C@@H](C)NC[C@H](O)c2ccc(O)c(NC=O)c2)cc1`, for which the “activity change, negative = inhibition” value is inactive: 9.6%.

Turning to `O=C(CCCN1CCC(n2c(=S)[nH]c3ccccc32)CC1)c1ccc(F)cc1`, the “activity change, negative = inhibition” value is inactive: 21.9%.

Take `C#CC1(O)CC[C@H]2[C@@H]3CCC4=CCCC[C@@H]4[C@H]3CC[C@@]21C` (stereo partly drawn): the “activity change, negative = inhibition” value is inactive: -22.1% [at 75.8 µM].

Regarding `COC(=O)[C@@H]1CCCN1Cc1ccc2c(c1)CN(Cc1ccc3c(c1)CCO3)CCO2`, the “activity change, negative = inhibition” value is inactive: 5.94%.

On to `COc1ncc2nc(-c3cccs3)c(=O)n(CCC#N)c2n1`, for which the “activity change, negative = inhibition” value was inactive: -1.38%.

As for `C=CCNc1ncnc2ccc(Br)cc12`, the “activity change, negative = inhibition” value was inactive: 12.2% [at 75.8 µM].

In the case of `COc1ccc(CNc2ncncc2-c2ccccc2C)c(OC)c1`, the “activity change, negative = inhibition” value is inactive: 2.5%.

As to `CC(=O)Oc1ccc(C2(c3ccc(OC(C)=O)cc3)Oc3ccccc3NC2=O)cc1`, the “activity change, negative = inhibition” value was inactive: -0.533%.

As for `COc1cccc(-c2ccc(O)c(CNCc3cccc4ccccc34)c2)n1`, the “activity change, negative = inhibition” value is inactive: 6.13%.

`COc1cccc(C2(CC(=O)N3CCC(c4nc5ccc(F)cc5[nH]4)CC3)CC(=O)N(C)C2=O)c1` (stereo not drawn): the “activity change, negative = inhibition” value was inactive: 13.6%.

Take `CC(CN1CCc2nnc(CNC(=O)c3cccc(F)c3)n2CC1)c1ccccc1` (stereo not drawn): the “activity change, negative = inhibition” value is inactive: 7.93%.

Take `COc1ncc2nc(CCc3ccccc3)c(=O)n(Cc3cccs3)c2n1`: the “activity change, negative = inhibition” value is inactive: 3.4%.

Turning to `CCOC(CN1CCN(CC(C)C(=O)c2ccccc2)CC1)c1ccccc1` (stereo not drawn), the “activity change, negative = inhibition” value is inactive: 10.5%.

On to `OCC(CO)N[C@H]1C[C@](O)(CO)[C@@H](O)[C@H](O)[C@H]1O`, for which the “activity change, negative = inhibition” value was inactive: -2.1%.

For the molecule `CC(C)[C@H]1COCCS(=O)(=O)N1Cc1ccc(Cl)cc1`, the “activity change, negative = inhibition” value was inactive: 7.68%.

For the molecule `CCNc1ncc2nc(-c3cccs3)c(=O)n(Cc3cccs3)c2n1`, the “activity change, negative = inhibition” value is inactive: 11.2%.

`COc1cccc2c1CCC1CC(=O)CC[C@@]21C` (stereo partly drawn): the “activity change, negative = inhibition” value is inactive: -2.15%.

Turning to `O=c1[nH]cnc2[nH]cc(CN3CCCCC3)c12`, the “activity change, negative = inhibition” value was inactive: 11%.

Turning to `Cn1ccc(C(=O)NCC2CCC3(CCN(Cc4ccc(F)cc4F)CC3)O2)n1` (stereo not drawn), the “activity change, negative = inhibition” value was inactive: 4.12%.

As to `CC(C)(Cc1c[nH]c2ccccc12)NCC(O)COc1ccccc1C#N` (stereo not drawn), the “activity change, negative = inhibition” value is inactive: 14.3%.

In the case of `O=C(NCC1Cc2cccc(-c3cccnc3)c2O1)c1cc(-c2ccccc2)n[nH]1` (stereo not drawn), the “activity change, negative = inhibition” value is inactive: 5.87%.

As to `OC(CCN1CCCCC1)(c1ccccc1)c1ccccc1`, the activity change, negative = inhibition entry was “inactive”.

On to `CC(=O)[C@H]1[C@H](C#N)C[C@H]2[C@@H]3CC=C4C[C@@H](O)CC[C@]4(C)[C@H]3CC[C@@]21C`, for which the “activity change, negative = inhibition” value is inactive: -1.47% [at 201 µM].

In the case of `Cc1ccc(Nc2nccc(N(C)c3ccc4c(C)n(C)nc4c3)n2)cc1S(N)(=O)=O`, the “activity change, negative = inhibition” value is inactive: 12.1%.

Turning to `O=C1CCN(CCc2ccccc2)CCN1[C@H](CSc1ccccc1)c1ccccc1`, the “activity change, negative = inhibition” value was inactive: -7.86%.

For `Cc1noc(C)c1C(=O)N1CCC2(CC1)CN(c1ncccn1)C2`, the “activity change, negative = inhibition” value is inactive: 13.8%.

For the molecule `CCc1ccc(/C=C2/SC(=S)NC2=O)cc1`, the “activity change, negative = inhibition” value was inactive: 3.5% [at 75.8 µM].

Regarding `COc1ccccc1CNc1ncnc2ccc(-c3ccc(N(C)C)cc3)cc12`, the “activity change, negative = inhibition” value was inactive: 21.1%.

`CN=C1C=CC(=C(c2ccc(N(C)C)cc2)c2ccc(N(C)C)cc2)C=C1`: the “activity change, negative = inhibition” value was inactive: -11.5%.

These data come from PubChem BioAssay AID1645882 (National Center for Advancing Translational Sciences (NCATS), 2021).
